Experimental findings from US20230270114A1, “FUNGICIDAL COMPOSITIONS” (SYNGENTA CROP PROTECTION AG, priority 2020, published 2023) are described below.

The test system of the assay is Blumeria graminis f. sp. tritici (Erysiphe graminis f. sp. tritici). Kind of assay: Example A4: Blumeria graminis f. sp. tritici / wheat / leaf disc preventative (powdery mildew on wheat). The conditions noted are these: foliar, read-out: control of Blumeria graminis f. sp. tritici. The text has this: Example A4: Blumeria Graminis F. Sp. Tritici (Erysiphe Graminis F. Sp. Tritici) / Wheat / Leaf Disc Preventative (Powdery Mildew On Wheat)
Wheat leaf segments cv. […] The leaf disks are inoculated by shaking powdery mildew infected plants above the test plates 1 day after application.

As to `CC(=O)OC(C)C(=O)N(c1cc(F)nc(F)c1)c1nc(C(=O)NC2CCC23CCCC3)c(C)s1` (stereo not shown) [X.01, [2-[(2,6-difluoro-4-pyridyl)-[5-methyl-4-(spiro[3.4]octan-3-ylcarbamoyl)thiazol-2-yl]amino]-1-methyl-2-oxo-ethyl] acetate], the pest or weed control at 200 ppm was no less than 80%.
